Consider six variants from the GPR68 mutational scans of Howard et al. (2025).

To fix the notation:
B1: GPR68, Q15743 (parent)
chain: MGNITADNSSMSCTIDHTIHQTLAPVVYVTVLVVGFPANCLSLYFGYLQIKARNELGVYLCNLTVADLFYICSLPFWLQYVLQHDNWSHGDLSCQVCGILLYENIYISVGFLCCISVDRYLAVAHPFRFHQFRTLKAAVGVSVVIWAKELLTSIYFLMHEEVIEDENQHRVCFEHYPIQAWQRAINYYRFLVGFLFPICLLLASYQGILRAVRRSHGTQKSRKDQIQRLVLSTVVIFLACFLPYHVLLLVRSVWEASCDFAKGVFNAYHFSLLLTSFNCVADPVLYCFVSETTHRDLARLRGACLAFLTCSRTGRAREAYPLGAPEASGKSGAQGEEPELLTKLHPAFQTPNSPGSGGFPTGRLA

The variants in data set [1] derive from B1. The data set is described as follows: cAMP reporter score (Enrich2 score, wild type = 0); higher = more signal; HEK293T, FACS bins.
Data set [2] covers variants of B1. The data set is described as follows: surface expression score (Enrich2 score, wild type = 0); higher = more signal; HEK293T, FACS bins.

Scores with a large standard error are left out. Two further conditions of the source, in which the scores hardly spread, are not listed. Read del as a deletion of the residues named and ins as an insertion between two positions. For some of these results: The concentration of ogerin is not given here.

In the case of A184_N186del, the cAMP reporter score is -1.56 in data set [1] (pH 5.5); -1.61 in data set [1] (pH 6); -1.2 in data set [1] (pH 6, modulator: ogerin); -1.63 in data set [1] (pH 6.5, modulator: ogerin). In data set [2], the surface expression score is -1.37.

In the case of A184_I185insG, the cAMP reporter score in data set [1] (pH 5.5) was -1.6; in data set [1] (pH 6, modulator: ogerin), -1.55; in data set [1] (pH 6.5, modulator: ogerin), -0.563. Moreover, the surface expression score in data set [2] was -1.45.

Regarding MGNITADNSSMSCTIDHTIHQTLAPVVYVTVLVVGFPANCLSLYFGYLQIKARNELGVYLCNLTVADLFYICSLPFWLQYVLQHDNWSHGDLSCQVCGILLYENIYISVGFLCCISVDRYLAVAHPFRFHQFRTLKAAVGVSVVIWAKELLTSIYFLMHEEVIEDENQHRVCFEHYPIQAWQRADNYYRFLVGFLFPICLLLASYQGILRAVRRSHGTQKSRKDQIQRLVLSTVVIFLACFLPYHVLLLVRSVWEASCDFAKGVFNAYHFSLLLTSFNCVADPVLYCFVSETTHRDLARLRGACLAFLTCSRTGRAREAYPLGAPEASGKSGAQGEEPELLTKLHPAFQTPNSPGSGGFPTGRLA [I185D], the cAMP reporter score in data set [1] (pH 5.5) is -1.28; in data set [1] (pH 6), -0.585; in data set [1] (pH 6, modulator: ogerin), -0.477; in data set [1] (pH 6.5, modulator: ogerin) it was -2.1.

As for MGNITADNSSMSCTIDHTIHQTLAPVVYVTVLVVGFPANCLSLYFGYLQIKARNELGVYLCNLTVADLFYICSLPFWLQYVLQHDNWSHGDLSCQVCGILLYENIYISVGFLCCISVDRYLAVAHPFRFHQFRTLKAAVGVSVVIWAKELLTSIYFLMHEEVIEDENQHRVCFEHYPIQAWQRAENYYRFLVGFLFPICLLLASYQGILRAVRRSHGTQKSRKDQIQRLVLSTVVIFLACFLPYHVLLLVRSVWEASCDFAKGVFNAYHFSLLLTSFNCVADPVLYCFVSETTHRDLARLRGACLAFLTCSRTGRAREAYPLGAPEASGKSGAQGEEPELLTKLHPAFQTPNSPGSGGFPTGRLA [I185E], the cAMP reporter score in data set [1] (pH 5.5) is -0.959; in data set [1] (pH 6), -1.42; in data set [1] (pH 6.5, modulator: ogerin), -2.06. Further, in data set [2], the surface expression score worked out at 0.04.

For MGNITADNSSMSCTIDHTIHQTLAPVVYVTVLVVGFPANCLSLYFGYLQIKARNELGVYLCNLTVADLFYICSLPFWLQYVLQHDNWSHGDLSCQVCGILLYENIYISVGFLCCISVDRYLAVAHPFRFHQFRTLKAAVGVSVVIWAKELLTSIYFLMHEEVIEDENQHRVCFEHYPIQAWQRAANYYRFLVGFLFPICLLLASYQGILRAVRRSHGTQKSRKDQIQRLVLSTVVIFLACFLPYHVLLLVRSVWEASCDFAKGVFNAYHFSLLLTSFNCVADPVLYCFVSETTHRDLARLRGACLAFLTCSRTGRAREAYPLGAPEASGKSGAQGEEPELLTKLHPAFQTPNSPGSGGFPTGRLA [I185A], the cAMP reporter score in data set [1] (pH 5.5) stood at 1.72; in data set [1] (pH 6), 0.028; in data set [1] (pH 6, modulator: ogerin) it was 0.681; in data set [1] (pH 6.5, modulator: ogerin), 0.854. Also, the surface expression score in data set [2] is 1.87.

Turning to MGNITADNSSMSCTIDHTIHQTLAPVVYVTVLVVGFPANCLSLYFGYLQIKARNELGVYLCNLTVADLFYICSLPFWLQYVLQHDNWSHGDLSCQVCGILLYENIYISVGFLCCISVDRYLAVAHPFRFHQFRTLKAAVGVSVVIWAKELLTSIYFLMHEEVIEDENQHRVCFEHYPIQAWQRACNYYRFLVGFLFPICLLLASYQGILRAVRRSHGTQKSRKDQIQRLVLSTVVIFLACFLPYHVLLLVRSVWEASCDFAKGVFNAYHFSLLLTSFNCVADPVLYCFVSETTHRDLARLRGACLAFLTCSRTGRAREAYPLGAPEASGKSGAQGEEPELLTKLHPAFQTPNSPGSGGFPTGRLA [I185C], the cAMP reporter score is -0.986 in data set [1] (pH 5.5) and -0.627 in data set [1] (pH 6.5, modulator: ogerin). Moreover, the surface expression score in data set [2] was -1.01.
